In the supplement of paper PMC4723716:
± gives the uncertainty stated by the source. Over roughly 9,900 compounds, “viability index relative to DMSO control” has its median near 1; the lowest 2% begin near 0.85. Some of the results follow.

Test system: Plasmodium falciparum NF54 stage V gametocytes
Experiment: viability index relative to DMSO control (fraction); higher = less gametocyte killing
Settings: 2.5 µM, library set: Broad Institute DOS, incubation time: 72 h
Description: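 Broad DOS informer set and blood-stage-active DOS compounds screened in duplicate at 2.5 µM against P. falciparum NF54 stage V gametocytes with the serum-free one-step SaLSSA (1536-well): 72 h at 37 °C under low oxygen, then saponin lysis and MitoTracker Red CMXRos staining, with high-content imaging. Viability index = viable-object count divided by the plate mean of DMSO wells (0 = killed, about 1 = inactive).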

| SMILES | viability index |
| --- | --- |
| OC[C@@H]1Nc2ccc(-c3cccc(F)c3)cc2[C@@H]2[C@H]1CCN2Cc1ccc(F)cc1 | 1.04 ± 0.06 |
| C[C@H](NC(=O)C[C@@H]1CC[C@@H]2[C@H](COc3ccc(NC(=O)C4CCOCC4)cc3C(=O)N2C)O1)c1ccccc1 | 1.15 ± 0.033 |
| C/C=C/c1ccc2c(c1)[C@H]1[C@H](CCN1S(=O)(=O)c1cn(C)cn1)[C@H](CO)N2 | 1.06 ± 0.042 |
| O=C(C[C@H]1CC[C@@H]2[C@H](COC[C@@H](O)CN2C(=O)c2ccncc2)O1)Nc1ccc(-c2ccccc2)cc1 | 1.06 ± 0.044 |
| CN(C)CC(=O)N[C@@H]1C=C[C@@H](CC(=O)NCc2ccc(Cl)cc2)O[C@@H]1CO | 1.06 ± 0.15 |
| COc1ccc(C(=O)Nc2ccc3c(c2)C(=O)N(C)[C@H]2CC[C@@H](CC(=O)NCC4CC4)O[C@@H]2CO3)cc1 | 0.952 ± 0.035 |
| N#C[C@H]1[C@@H](c2ccccc2)[C@@H](CO)N1C(=O)Nc1cccc(F)c1 | 1.06 ± 0.057 |
| O=C(c1cnccn1)N1CC(=O)N2[C@H](C1)[C@H](c1ccc(/C=C/c3ccccc3)cc1)[C@@H]2CO | 1.003 ± 0.0087 |
| COCC(=O)N1[C@@H]2c3cccc(=O)n3C[C@@H]2[C@@H](CO)[C@@H]1C(=O)NCc1ccccc1 | 1.08 ± 0.017 |
| COCC(=O)N1CC2(C1)[C@H](c1ccccc1)[C@H](CO)N2CCC(F)(F)F | 1.11 ± 0.038 |
| CCCC#Cc1ccc([C@@H]2[C@@H](CO)N3C(=O)CN(C(=O)c4cccnc4)C[C@H]23)cc1 | 1.05 ± 0.094 |
| CNC[C@@H]1Oc2ccc(NC(=O)CCC(F)(F)F)cc2C(=O)N([C@@H](C)CO)C[C@@H]1C | 1.02 ± 0.018 |
| COc1ccc(S(=O)(=O)N2C[C@@H](O)COC[C@@H]3O[C@H](CC(=O)N[C@@H]4CCN(Cc5ccccc5)C4)CC[C@H]32)cc1 | 0.982 ± 0.056 |
| COc1cccc(S(=O)(=O)Nc2ccc3c(c2)C(=O)N(C)[C@@H]2CC[C@@H](CC(=O)NCC4CCCCC4)O[C@@H]2CO3)c1 | 0.971 ± 0.1 |
| COc1cccc(-c2ccc3c(c2)[C@H]2[C@H](CCN2S(=O)(=O)c2cn(C)cn2)[C@@H](CO)N3)c1 | 0.979 ± 0.073 |
| OC[C@@H]1[C@H]2c3ccccc3NC[C@H]2N1CC1CCOCC1 | 1.04 ± 0.048 |
| C[C@H]1CN([C@@H](C)CO)C(=O)CCCn2nncc2CO[C@H]1CN(C)CC1CCCCC1 | 0.965 ± 0.045 |
| CN1CCN(C(=O)C[C@@H]2CC[C@H]3[C@H](COc4ccc(NC(=O)C5CCOCC5)cc4C(=O)N3C)O2)CC1 | 1.05 ± 0.029 |

| SMILES | viability index |
| --- | --- |
| OC[C@H]1[C@H]2c3ccccc3NC[C@H]2N1Cc1ccccc1Cl | 0.982 ± 0.082 |
| C/C=C/c1ccccc1[C@H]1[C@@H](C#N)N(c2nc(CC)cs2)[C@H]1CO | 1.08 ± 0.12 |
| C[C@@H]1CCCCO[C@H](CN(C)C(=O)CCC(F)(F)F)[C@@H](C)CN([C@@H](C)CO)C(=O)c2cc(NC(=O)C3CCCCC3)ccc2O1 | 1.06 ± 0.032 |
| Cc1ccccc1-c1ccc([C@@H]2[C@@H]3CN(C(=O)Cc4ccncc4)C[C@H]2N3)cc1 | 0.921 ± 0.11 |
| C[C@@H]1CN([C@@H](C)CO)C(=O)CCCn2nncc2CO[C@@H]1CN(C)C(=O)Nc1ccccc1C(F)(F)F | 0.986 ± 0.044 |
| O=C(NCc1ccccc1)[C@H]1[C@H](CO)[C@H]2Cn3c(cccc3=O)[C@@H]1N2C(=O)Cc1ccccn1 | 1.01 ± 0.015 |
| CO[C@@H]1CN(C)C(=O)c2cc(NC(=O)Nc3cc(F)ccc3F)ccc2OC[C@H](C)NC[C@H]1C | 1.022 ± 0.01 |
| COc1ccc2c3c([nH]c2c1)[C@@H](CO)N(C[C@]31CN(Cc2cc(F)ccc2F)C1)C(=O)Nc1ccc(F)cc1 | 0.9168 ± 0.0018 |
| O=C(C[C@H]1C=C[C@@H](NC(=O)Cc2cccnc2)[C@H](CO)O1)NCc1ccc2c(c1)OCO2 | 1.11 ± 0.064 |
| C/C=C/c1ccc([C@H]2[C@@H](CO)N(C(=O)CN(C)C)C23CN(C(=O)C2CCOCC2)C3)cc1 | 1.126 ± 0.0026 |
| CN1C[C@H](O)COC[C@H]2O[C@H](CC(=O)NC3CCCC3)CC[C@@H]21 | 1.12 ± 0.03 |
| O=C(CN1CCOCC1)N1CC2(C1)[C@H](c1ccccc1)[C@H](CO)N2Cc1cccc(F)c1 | 1.04 ± 0.025 |
| CCNC(=O)c1cc2c(c(-c3cccc(-c4cccc(C(=O)N(C)C)c4)c3)n1)[C@@H](CCO)N([S@](=O)C(C)(C)C)C2 | 0.99 ± 0.12 |
| O=C(C[C@@H]1CC[C@@H]2[C@H](COC[C@H](O)CN2Cc2ccc(F)cc2)O1)NCCc1ccccc1 | 0.951 ± 0.081 |
| CCC(=O)N1Cc2cc(C(=O)N(C)C)nc(-c3cccc(-c4cncnc4)c3)c2[C@H]1CCO | 1.05 ± 0.059 |
| CCc1cnc(N2[C@@H](C#N)[C@H](c3ccc(-c4cccc(F)c4)cc3)[C@@H]2CO)s1 | 1.04 ± 0.022 |
| Cc1cccc(S(=O)(=O)N2C[C@@H]3[C@H](c4ccccc42)[C@@H](CO)N3CC2CCCC2)c1 | 0.975 ± 0.029 |
